Laboratory results: patent publication US20140004122A1, “METHODS FOR TREATING OR PREVENTING CHOLESTEROL RELATED DISORDERS” (AMGEN INC., priority 2011, published 2014)

Columns and labels:
[1] = biological target: D374Y human PCSK9 (HepG2 cells) (Homo sapiens, UniProt Q8NBP7, D374Y); assay: Cell LDL uptake assay (Example 10); assay type: cell-based; conditions: 2 μg/ml D374Y human PCSK9, HepG2 cells
Procedure: Human HepG2 cells were seeded in black, clear bottom 96-well plates (Costar) at a concentration of 5×10^5 cells per well in DMEM medium (Mediatech, Inc) supplemented with 10% FBS and incubated at 37° C. (5% CO2) overnight. To form the PCSK9 and antibody complex, 2 μg/ml of D374Y human PCSK9 was incubated with various concentrations of antibody diluted in uptake buffer (DMEM with 1% FBS) or uptake buffer alone (control) for 1 hour at room temperature. After washing the cells with PBS, the D374Y PCSK9/antibody mixture was transferred to the cells, followed by LDL-BODIPY (Invitrogen) diluted in uptake buffer at a final concentration of 6 μg/ml. After incubation for 3 hours at 37° C. (5% CO2), cells were washed thoroughly with PBS and the cell fluorescence signal was detected by Safire™ (TECAN) at 480-520 nm (excitation) and 520-600 nm (emission).

D374Y PCSK9/LDLR binding = D374Y PCSK9/LDLR binding (Homo sapiens, UniProt Q8NBP7, D374Y); assay: Blocking D374Y PCSK9/LDLR binding (Example 9); conditions: 20 ng/ml biotinylated D374Y PCSK9
Procedure: Clear 384 well plates (Costar) were coated with 2 micrograms/ml of goat anti-LDL receptor antibody (R&D Systems) diluted in buffer A (100 mM sodium cacodylate, pH 7.4). Plates were washed thoroughly with buffer A and then blocked for 2 hours with buffer B (1% milk in buffer A). After washing, plates were incubated for 1.5 hours with 0.4 micrograms/ml of LDL receptor (R&D Systems) diluted in buffer C (buffer B supplemented with 10 mM CaCl2). […] The LDL receptor containing plates were washed and the biotinylated D374Y PCSK9/antibody mixture was transferred to them and incubated for 1 hour at room temperature. Binding of the biotinylated D374Y to the LDL receptor was detected by incubation with streptavidin-HRP (Biosource) at 500 ng/ml in buffer C followed by TMB substrate (KPL). The signal was quenched with 1N HCl and the absorbance read at 450 nm.

PCSK9 [2] = biological target: T1, PCSK9 (Homo sapiens, UniProt Q8NBP7); assay: BIAcore solution equilibrium binding assay; conditions: 0.3, 1 and 3 nM fixed PCSK9; read-out: KD hPCSK9
Description: Flow cell 3 was used as a background control. […] Although cPCSK9 has lower protein concentration observed from KinExA assay and SDS-gel, its concentration was not adjusted here since the concentration of cPCSK9 was not used for calculation of KD. […] FIG. 5B depicts the results from the solution equilibrium assay at three different hPCSK9 concentrations for hPCSK9. FIG. 5C depicts a similar set of results for mPCSK9. FIG. 5D depicts the results from the above biacore capture assay.

PCSK9 [3] = biological target: T1, PCSK9; assay: BIAcore affinity analysis; assay type: binding; conditions: pH 7.4 (Table 7.2)
Procedure: Briefly, the surface plasmon resonance experiments were performed using Biacore 2000 optical biosensors (Biacore, GE Healthcare, Piscataway, N.J.). […] The concentration of PCSK9 protein was varied at 2 fold intervals (the analyte) and was injected over the immobilized antibody surface (at a flow rate of 100 μl/min for 1.5 minutes). Fresh HBS-P buffer (pH 7.4, 0.01 M Hepes, 0.15 M NaCl, 0.005% surfactant P-20, Biacore) supplemented with 0.01% BSA was used as binding buffer.
The binding signal obtained was proportional to the free PCSK9 in solution.
Antibody binding kinetic parameters including ka (association rate constant), kd (dissociation rate constant), and KD (dissociation equilibrium constant) were determined using the BIA evaluation 3.1 computer program (BIAcore, Inc. Piscataway, N.J.).

PCSK9 [4] = biological target: T1, PCSK9; assay: BIAcore affinity analysis; assay type: binding; conditions: for Kd: pH 6 (Table 7.2)

Molecule	IC50 [1] [nM]	IC50 (D374Y PCSK9/LDLR binding) [nM]	Kd (PCSK9 [2]) [nM]	Kd (PCSK9 [3]) [nM]	Koff (PCSK9 [4]; pH 6) [s⁻¹]	Kon (PCSK9 [4]; pH 6) [M⁻¹ s⁻¹]	Kd (PCSK9 [4]) [nM]	Koff (PCSK9 [4]; pH 7.4) [s⁻¹]	Kon (PCSK9 [4]; pH 7.4) [M⁻¹ s⁻¹]
21B12 IgG4: human 21B12 IgG4 antibody produced from hybridomas (antibody) heavy: QVQLVQSGAEVKKPGASVKVSCKASGYTLTSYGISWVRQAPGQGLEWMGWVSFYNGNTNYAQKLQGRGTMTTDPSTSTAYMELRSLRSDDTAVYYCARGYGMDVWGQGTTVTVSSASTKGPSVFPLAPCSRSTSESTAALGCLVKDYFPEPVTVSWNSGALTSGVHTFPAVLQSSGLYSLSSVVTVPSSSLGTKTYTCNVDHKPSNTKVDKRV[human IgG4 Fc not spelt out] light: QSALTQPASVSGSPGQSITISCTGTSSDVGGYNSVSWYQQHPGKAPKLMIYEVSNRPSGVSNRFSGSKSGNTASLTISGLQAEDEADYYCNSYTSTSMVFGGGTKLTVLQPKAAPSVTLFPPSSEELQANKATLVCLISDFYPGAVTVAWKADSSPVKAGVETTTPSKQSNNKYAASSYLSLTPEQWKSHRSYSCQVTHEGSTVEKTVAPTECS	18	0.169	–	–	–	–	–	–	–
21B12.1: clone 1 of hybridoma line 21B12 (line number and clone number) (antibody) heavy: QVQLVQSGAEVKKPGASVKVSCKASGYTLTSYGISWVRQAPGQGLEWMGWVSFYNGNTNYAQKLQGRGTMTTDPSTSTAYMELRSLRSDDTAVYYCARGYGMDVWGQGTTVTVSSASTKGPSVFPLAPCSRSTSESTAALGCLVKDYFPEPVTVSWNSGALTSGVHTFPAVLQSSGLYSLSSVVTVPSSSLGTKTYTCNVDHKPSNTKVDKRV[human IgG4 Fc not spelt out] light: QSALTQPASVSGSPGQSITISCTGTSSDVGGYNSVSWYQQHPGKAPKLMIYEVSNRPSGVSNRFSGSKSGNTASLTISGLQAEDEADYYCNSYTSTSMVFGGGTKLTVLQPKAAPSVTLFPPSSEELQANKATLVCLISDFYPGAVTVAWKADSSPVKAGVETTTPSKQSNNKYAASSYLSLTPEQWKSHRSYSCQVTHEGSTVEKTVAPTECS	–	–	0.015	0.19	1.676e-05	2.291e+06	0.0073	6.634e-06	34918
16F12.1: clone 1 of hybridoma line 16F12 (line number and clone number) (antibody) heavy: QVHLVESGGGVVQPGRSLRLSCAASGFTFNSFGMHWVRQAPGKGLEWVALIWSDGSDEYYADSVKGRFTISRDNSKNTLYLQMNSLRAEDTAVYYCARAIAALYYYYGMDVWGQGTTVTVSSASTKGPSVFPLAPCSRSTSESTAALGCLVKDYFPEPVTVSWNSGALTSGVHTFPAVLQSSGLYSLSSVVTVPSSSLGTKTYTCNVDHKPSNTKVDKRV[human IgG4 Fc not spelt out] light: QSVLTQPPSVSAAPGQKVTISCSGSSSNIGNNFVSWYQQLPGTAPKLLIYDYNKRPSGIPDRFSGSKSGTSATLGITGLQTGDEADYYCGTWDSSLSAYVFGTGTRVTVLQPKAAPSVTLFPPSSEELQANKATLVCLISDFYPGAVTVAWKADSSPVKAGVETTTPSKQSNNKYAASSYLSLTPEQWKSHRSYSCQVTHEGSTVEKTVAPTECS	–	–	–	0.47	7.007e-05	2.392e+06	0.029	4.983e-05	106400
